From PubChem BioAssay AID504706 (National Center for Advancing Translational Sciences (NCATS), 2011)
Out of some 320,000 compounds screened, about 200 (0.062%) were called active. The inconclusive results got no clear call from the source; some entries with a clear call stand among them for comparison. Calls follow the shape of the dose curve; as a rule, active = well fitted activation curve with a large enough effect; inconclusive = small, poorly fitted or top-dose-only effect; inactive = no such curve, though single readings can be large or run the other way. Potencies of inconclusive entries are left out as doubtful fits.

Test: qHTS assay for re-activators of p53 using a Luc reporter; also: nearly all actives have a fitted effect of over 45% in size
Details: H1299 p53-A138V BP100-luciferase reporter, luminescence, 24 h; series mostly up to 92.2 µM
Method in brief: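 p53-null H1299 cells stably carrying temperature-sensitive p53-A138V and a BP100-luciferase reporter were pinned with compounds (4-point, 1:5 series) and held 24 hrs at 37 deg C. Luminescence was read 10 min after detection reagent.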
Potency is read from the fitted curve at half-maximal effect; tags tell the direction and shape of the fitted curve.

SMILES | Potency
Cc1cc(C(=O)CN2C(=O)c3ccccc3S2(=O)=O)c(C)n1C(C)C | inactive
C=CCn1c(SCC(=O)Nc2cccnc2Cl)nnc1-c1ccc(C(C)(C)C)cc1 | inconclusive [activator, partial curve, poor fit]
N#Cc1ccc(-c2ccc(OCC(=O)NCCc3ccccc3)cc2)cc1 | inactive
COCCCNC(=O)Cn1cnc(C(=O)Nc2ccc(C)c(C)c2)n1 | inactive
O=C(/C=C/NCc1cccnc1)c1ccc(-c2ccccc2)cc1 | inconclusive [activator, partial curve, poor fit]
CNc1nc(SCC(=O)OC)nc(N2CCOCC2)n1 | inconclusive [activator, partial curve, poor fit]
CCOC(=O)c1c(C)[nH]c(N=Nc2cccc(C)c2)c1C | inconclusive [activator, partial curve, poor fit]
O=C(O)c1ccc(COc2ccc(/C=N/NC(=O)c3cccs3)cc2)cc1 | inconclusive [activator, single point]
COc1cccc(/C=N\NC(=O)C2=NNC(=O)C2C)c1O (stereo unspecified) | inconclusive [activator, partial curve, poor fit]
C=C(C)CNC(=S)NNC(=O)c1ccc(Br)cc1 | inconclusive [activator, full curve, poor fit]
CC(C)(C)c1ccc(S(=O)(=O)Nc2ccc(Cc3ccncc3)cc2)cc1 | inconclusive [activator, partial curve, poor fit]
CCCCNc1nc(N(C)c2ccccc2)nc(-n2ccnc2)n1 | inactive
O=C(COC(=O)C12CC3CC(CC(O)(C3)C1)C2)Nc1ccc(Br)cc1F | inconclusive [activator, partial curve, poor fit]
CCOC(=O)C1CCN(CC(=O)Nc2c(C(=O)OC)[nH]c3ccc(Cl)cc23)CC1 | inactive
CC1=NN(c2ccccc2)C(=O)C1C=Nc1ccc(N(C)C)cc1 (stereo unspecified) | inconclusive [activator, single point]
O=c1c2[nH]c3ccc(Cl)cc3c2ncn1CCN1CCCCC1 | inactive
NS(=O)(=O)c1ccc(NC(=O)/C=C/c2cn(-c3ccccc3)nc2-c2cccc(Cl)c2)cc1 | inactive
COCC(C)N1CCC(Oc2cccc(C(=O)NCCc3ccccc3)c2)CC1 (stereo unspecified) | inconclusive [activator, full curve, poor fit]
CCOC(=O)c1c(NC(=O)C(C)NCc2ccco2)sc2c1CCC(C)C2 (stereo unspecified) | inactive
CC(=O)c1ccc(NC(=O)NC2CCCCCCC2)cc1 | inconclusive [activator, partial curve, poor fit]
CCOC(=O)Cc1c(C)nc2c(-c3ccc(Cl)cc3)c[nH]n2c1=O | inconclusive [activator, single point]
O=C(/C=C/c1cccc([N+](=O)[O-])c1)n1cnc2ccccc21 | inactive
COc1cc(/C=N/Nc2ccc3ccccc3c2)ccc1OC(=O)c1ccco1 | inconclusive [activator, partial curve, poor fit]
Cn1c(=O)c2c(nc(CN3CCc4ccccc4C3)n2CCCO)n(C)c1=O | inactive
Cc1ccc(NC(=O)Cn2cccc2)c(Br)c1 | inconclusive [activator, single point]
CCOC(=O)c1sc(Nc2nc3c(F)cccc3s2)cc1C | inconclusive [activator, partial curve, poor fit]

SMILES | Potency
c1ccc(CCSc2ncnc3nc[nH]c23)cc1 | inconclusive [activator, partial curve, poor fit]
Cc1ccc(NC(=O)c2c(C)nn(-c3ccccc3)c2Cl)cc1 | inconclusive [activator, partial curve, poor fit]
OC1CCC(NC(=S)Nc2ccc(SC(F)F)cc2)CC1 (stereo unspecified) | inconclusive [activator, partial curve, poor fit]
O=C(Nc1nc(-c2ccc(F)c(F)c2)cs1)C1=COCCO1 | inconclusive [activator, single point]
COc1ccccc1/C=C1\CCC(C2CCCC2)C1=O (stereo unspecified) | inconclusive [activator, partial curve, poor fit]
COc1cc(NC(=O)n2ncc3cc(Cl)ccc32)cc(OC)c1 | inactive
CC(C(=O)N1CCN(C(=O)c2ccco2)CC1)n1sc2ccccc2c1=O (stereo unspecified) | inactive
O=C(N/N=C/c1ccccc1F)NC12CC3CC(CC(C3)C1)C2 | inconclusive [activator, partial curve, poor fit]
O=C(Nc1nccs1)c1ccc(N2C(=O)[C@@H]3[C@H](C2=O)[C@H]2C=C[C@@H]3C2)cc1 | inconclusive [activator, partial curve, poor fit]
O=C1NC(=Nc2ccccc2)CS1 | inactive
O=C(O)c1cccc(N2C(=S)N=C(Nc3ccccc3)C23CCCCC3)c1 | inactive
Clc1ccc(Nc2nc(-c3cccnc3)cs2)cc1 | inconclusive [activator, full curve, poor fit]
O=c1cc(-c2ccccc2F)oc2ccccc12 | inconclusive [activator, full curve]
O=C(NC(=S)Nc1ccccn1)c1ccccc1 | inconclusive [activator, full curve, poor fit]
COc1cccc(/C=C/c2ccc3cccc(O)c3n2)c1 | inconclusive [activator, full curve, poor fit]
O=C(Cc1cccc2ccccc12)NCC(=O)N1CCN(Cc2cccc(C(F)(F)F)c2)CC1 | inactive
O=C1c2cccnc2-c2ncccc21 | inactive
O=S(=O)(c1cccc(-c2nnc(SCc3nc4ccccc4s3)o2)c1)N1CCOCC1 | inconclusive [activator, single point]
Cc1ccc([N+](=O)[O-])cc1NC(=O)CCc1ccccc1 | inactive
O=C(Nc1ccccc1F)c1ccc2ncsc2c1 | inconclusive [activator, partial curve, poor fit]
O=C(/C=C/c1ccco1)NC(=S)Nc1ccccc1O | inactive
CC(=O)c1ccc(OCCCOc2cccc3cccnc23)cc1 | inactive
S=C1c2ccccc2CN1c1ccccc1 | inconclusive [activator, partial curve, poor fit]
O=C(NNC1=C(C(=O)C(F)(F)F)CCC1)c1ccccc1Cl | inconclusive [activator, single point]
CCOc1ccc(/C=N/NC(=O)c2cc(-c3ccccc3)nc3ccccc23)cc1O | inactive
CC1(C)C(=O)N(OCc2ccccc2)C(C)(C)C(=O)N1OCc1ccccc1 | inactive

SMILES | Potency
CCOC(=O)N1CCN(C(=O)CSCc2ccccc2)CC1 | inconclusive [activator, full curve, poor fit]
NC(=S)c1ncc(C(F)(F)F)cc1Cl | inactive
CCN(CC)S(=O)(=O)c1ccc(N2CCN(CCO)CC2)nc1 | inactive
COc1ccc(OC)c(NC(=O)c2nnn(Cc3ccccc3C)c2N)c1 | inactive
Cc1ccc(NC(=O)c2oc3ccccc3c2NC(=O)C2CCCO2)cc1C (stereo unspecified) | inconclusive [activator, partial curve, poor fit]
CC(C)NC(=O)Cn1c(SCC(=O)c2ccc(F)cc2)nc2ccccc21 | inactive
COc1ccccc1NC(=S)NNC(=S)Nc1ccc(OC(F)F)cc1 | inconclusive [activator, single point]
CCCn1nnnc1NC(=O)c1ccc(C)cc1Cl | inactive
Cc1sc2nc[nH]c(=S)c2c1-c1ccccc1 | inactive
CCCn1c(NCc2ccco2)nc2ccccc21 | inconclusive [activator, full curve, poor fit]
CN(C)S(=O)(=O)Nc1ccc(Br)cc1F | inactive
O=C(Nc1nc(-c2ccccc2)cs1)C1CCCO1 (stereo unspecified) | inconclusive [activator, partial curve, poor fit]
COC(=O)c1cc(C(=O)N2CCOCC2)cc([N+](=O)[O-])c1 | inconclusive [activator, single point]
O=C(COC(=O)C1CCCC1)NCc1ccc(Cl)cc1 | inactive
c1ccc(CCNc2ncnc3nc[nH]c23)cc1 | inconclusive [activator, partial curve, poor fit]
CCS(=O)(=O)c1ccc(O)c(NC(=O)CC2(CC(=O)O)CCCC2)c1 | inactive
CCOc1ccc(-c2c(C(=O)N/N=C(\C)c3cccnc3)nnn2-c2nonc2N)cc1 | inactive
COc1cc(/C=C/C(=O)N2CC(C)OC(C)C2)cc(OC)c1OC (stereo unspecified) | inconclusive [activator, single point]
Clc1cccc(C2Nc3cccc4cccc(c34)N2)c1Cl | inconclusive [activator, single point]
CCc1ccccc1NC(=O)COC(=O)C1C2CC3OC(=O)C1C3C2 (stereo unspecified) | inactive
COCCn1c(C)cc(C(=O)COC(=O)c2cc3c(s2)CCC3)c1C | inactive
Clc1nc(-c2ccccn2)nc2scc(-c3ccccc3)c12 | active: 11.2 µM
Oc1ccccc1-c1nnc(COc2ccc(Cl)cc2Cl)o1 | inconclusive [activator, full curve, poor fit]
C/C(N)=C(/C#N)C(=O)CSc1nnc(-c2ccccc2Br)o1 | inconclusive [activator, partial curve, poor fit]
